Measurements taken from the supplement of paper PMC5919970.
Where a name gives a salt, the structure may show the parent alone. The full ranking holds about 2,000 compounds; the median of “fractional viability relative to vehicle” is about 0.91, and the lowest 2% start at about 0.045. Some of the results follow.

Tested on: TYKNU
Test: fractional viability relative to vehicle; TYKNU is a high-grade serous ovarian cancer line; higher = less growth inhibition
Conditions: 72 h
Outline: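 Drug treatment lasted 72 h, with cells grown at 37 °C in 5% CO2 in RPMI 1640 supplemented with 10% FBS. Beforehand, TYKNU control cells or their lentiCRISPRv2 knockout derivatives had been seeded at 500 cells per well into drug-stamped 384-well plates carrying a ~2100-compound library at 2 or 10 μM, in duplicate. Viability came from Cell Titer Glo luminescence, with averaged duplicate treatment wells normalised to duplicate control wells in the same plate position.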

[1] = 2uM, genotype: DNM1L knockout (sgDNM1L #1)
[2] = 2uM, genotype: sgCTRLA1 (non-targeting control)
[3] = 10uM, genotype: DNM1L knockout (sgDNM1L #1)
[4] = 10uM, genotype: sgCTRLA1 (non-targeting control)

Compound | fractional viability [1] | fractional viability [2] | fractional viability [3] | fractional viability [4]
C[C@]1(c2nc3c(C(N)=O)cccc3[nH]2)CCCN1 [Veliparib (ABT-888)] | 0.94 | 0.993 | 0.951 | 1.06
O=C(O)Cc1cccc(OCCCN(Cc2cccc(C(F)(F)F)c2Cl)CC(c2ccccc2)c2ccccc2)c1 | 1.01 | 1.05 | 0.68 | 0.93
O=c1cc(-c2ccccc2)oc2cc(O)c(O)c(O)c12 [Baicalein] | 0.792 | 1.13 | 0.79 | 0.923
COc1cc(C2Oc3cc([C@H]4Oc5cc(O)cc(O)c5C(=O)[C@@H]4O)ccc3OC2CO)ccc1O (stereo not given in full) [Silibinin] | 1.05 | 1.19 | 1.1 | 1.17
COc1cc(C2Oc3cc([C@H]4Oc5cc(O)cc(O)c5C(=O)[C@@H]4O)ccc3OC2CO)ccc1O (stereo not given in full) [Silymarin] | 0.966 | 1.09 | 0.874 | 1.09
CCN(CC)CCOC(=O)c1ccc(N)cc1 [Procaine HCl] | 1.05 | 1.02 | 0.83 | 1.03
Clc1ccc(C(Cn2ccnc2)OCc2ccc(Sc3ccccc3)cc2)c(Cl)c1 (stereo not given) [Fenticonazole Nitrate] | 0.85 | 1 | 0.655 | 0.844
CC[C@H](C)C(=O)O[C@H]1C[C@@H](C)C=C2C=C[C@H](C)[C@H](CC[C@@H]3C[C@@H](O)CC(=O)O3)[C@H]21 [Lovastatin] | 0.56 | 0.759 | 0.314 | 0.316
COc1cccc2cc(-c3nc([C@H]4CC[C@H](C(=O)O)CC4)n4ncnc(N)c34)[nH]c12 | 0.38 | 0.519 | 0.186 | 0.233
O=C1CCC[C@@H]2[C@H]3CCC[N+]4([O-])CCC[C@@H](CN12)[C@@H]34 (stereo not given in full) [Oxymatrine] | 0.927 | 1.15 | 0.812 | 1.1
CC(C)n1c(/C=C/C(O)CC(O)CC(=O)O)c(-c2ccc(F)cc2)c2ccccc21 (stereo not given) [Fluvastatin Sodium] | 0.528 | 0.48 | 0.229 | 0.311
O=c1ccn([C@@H]2O[C@H](CO)[C@@H](O)[C@H]2O)c(=O)[nH]1 [Uridine] | 1.01 | 1.04 | 1.08 | 1.09
CCCCNc1cc(C(=O)O)cc(S(N)(=O)=O)c1Oc1ccccc1 [Bumetanide] | 0.935 | 1.12 | 0.918 | 1.09
C[C@H](Cn1cnc2c(N)ncnc21)OCP(=O)(O)O [Tenofovir] | 1.25 | 1.15 | 1.18 | 1.18
COC(=O)N[C@H](C(=O)N[C@@H](Cc1ccccc1)[C@@H](O)CN(Cc1ccc(-c2ccccn2)cc1)NC(=O)[C@@H](NC(=O)OC)C(C)(C)C)C(C)(C)C [Atazanavir Sulfate] | 0.914 | 1.08 | 0.914 | 1.06
